Experimental data reported in publication PMC7819943, “Rice protein-binding microarrays: a tool to detect cis-acting elements near promoter regions in rice”.
The other results are listed elsewhere or left out.

biological target: T1, OsWOX13 (Oryza sativa, UniProt Q5QMM3 1-267); assay: protein-binding microarray (RPBM); PBS, 2% BSA, 51.3 ng/ul salmon testes DNA, 50 uM zinc acetate, 200 nM TF, 25 C, 1 h; high values mean tight binding; settings: protein: recombinant; tags: N-terminal polyhistidine and DsRed monomer fusion (pET32a); label: CyDye5-dUTP incorporated in the synthesized complementary strand; 3' TTTTT single-stranded linker to array surface; dsDNA, one strand shown
T1 sequence: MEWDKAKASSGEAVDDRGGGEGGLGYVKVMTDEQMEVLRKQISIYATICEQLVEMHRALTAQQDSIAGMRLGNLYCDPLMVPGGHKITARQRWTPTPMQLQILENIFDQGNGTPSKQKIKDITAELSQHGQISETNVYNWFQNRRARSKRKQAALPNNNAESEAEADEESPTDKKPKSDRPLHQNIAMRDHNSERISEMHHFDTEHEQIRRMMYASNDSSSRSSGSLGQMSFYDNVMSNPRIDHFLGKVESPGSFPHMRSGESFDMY
How it was run: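 Transcription factors were each fused at the N-terminus to a polyhistidine tag plus DsRed and expressed in E. coli BL21-CodonPlus before Ni–NTA purification. Binding to a double-stranded custom Agilent array was carried out with 200 nM protein at 25 °C for 1 h in PBS, 2% BSA, salmon testes DNA and 50 µM zinc acetate. The binding signal is per-feature fluorescence intensity, in arbitrary units, on an Axon 4000B scanner.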

First: GTAATAATTAAAACTTAATTAATCATATGCTAATAGCTTTCGGAGTCACCTAGTGCAG
Second: TTAATTGATAAACATGTAAGACTAAATTTGATATATAACTCGGAGTCACCTAGTGCAG
The binding signal of the first is lower: 30300 fluorescence intensity (a.u.) for the first, 40000 fluorescence intensity (a.u.) for the second.

Going from “ACGATGATCATGACATACACGAATTGTGTGGTTAGAACTCCGGAGTCACCTAGTGCAG” to “TTCGGAATTTTAATTAATATATTTTGGGTTGATGATGGAGCGGAGTCACCTAGTGCAG”, the binding signal rises from 3400 fluorescence intensity (a.u.) to 18200 fluorescence intensity (a.u.).

Going from “TTTTAATTCTTGCTCCTGATTGAATCGCATCCCTCGACCACGGAGTCACCTAGTGCAG” to “GTTTAATTTATTTCACAAGTTTAAGTGTATATCATGTTAGCGGAGTCACCTAGTGCAG”, the binding signal rises from 22200 fluorescence intensity (a.u.) to 31000 fluorescence intensity (a.u.).

First: TCGCTTTGATTGACACTAAGAACCTCGCTGCGCATCTCGTCGGAGTCACCTAGTGCAG
Second: AACAATGCTTCTCTAATTGGTATATGTCGAGCCTTTTGCTCGGAGTCACCTAGTGCAG
The binding signal of the first is higher: 58600 fluorescence intensity (a.u.) for the first, 4060 fluorescence intensity (a.u.) for the second.

Compared with “TTTAATTCATTATATAATTTAAACGTAATTTGTGGTCACACGGAGTCACCTAGTGCAG”, “TCAAATTTGAGTTGAAAATTTTCAAATTTTAAGCTGAAAGCGGAGTCACCTAGTGCAG” is lower in binding signal: 27400 fluorescence intensity (a.u.) for the first, 4690 fluorescence intensity (a.u.) for the second.

First: AAGATTGGGCTGTTCATTAATCAAATTATTCTATGTGTCTCGGAGTCACCTAGTGCAG
Second: CTAACCACCCAATCAACAAAAGAGTACGTAAGGCCGTTGCCGGAGTCACCTAGTGCAG
The binding signal of the first is higher: 11900 fluorescence intensity (a.u.) for the first, 5600 fluorescence intensity (a.u.) for the second.

Going from “AATTAATCATTACTAACTTGTTTCATTTTACGTGGACTAACGGAGTCACCTAGTGCAG” to “AAGAATAATTACTCGTAATTACGAGTATCCGTGTCAAGTCCGGAGTCACCTAGTGCAG”, the binding signal rises from 5560 fluorescence intensity (a.u.) to 42000 fluorescence intensity (a.u.).

Compared with “CTTTGACTTGCACAAATTTGATGGCTTTATCAGTTTATTTCGGAGTCACCTAGTGCAG”, “TCAATGGCATGATTACTAATAGAGGAATCGTAATTACATTCGGAGTCACCTAGTGCAG” is lower in binding signal: 9390 fluorescence intensity (a.u.) for the first, 7000 fluorescence intensity (a.u.) for the second.

Compared with “GTGACATCATAATTTAGATTTAACTTATTCGTGCATATTACGGAGTCACCTAGTGCAG”, “TTCCTAGGATTTTGCATCTTGATTGATCACTAGTGCCATTCGGAGTCACCTAGTGCAG” is higher in binding signal: 9460 fluorescence intensity (a.u.) for the first, 18100 fluorescence intensity (a.u.) for the second.

Going from “TCTCTGTGATTGAAACCTTGTCTCTGAAATGCTTGAGGGCCGGAGTCACCTAGTGCAG” to “TACTCGCGCCAATCAATCATCCCCGGCGCGGGGAAAGCAACGGAGTCACCTAGTGCAG”, the binding signal falls from 55400 fluorescence intensity (a.u.) to 14500 fluorescence intensity (a.u.).

Compared with “ATAATATAATATATAATCAATCATGAGTGAAACGATGAGACGGAGTCACCTAGTGCAG”, “AAGCTAACTATAAATTAATTGTTTCTCACAAACATATCCTCGGAGTCACCTAGTGCAG” is lower in binding signal: 33800 fluorescence intensity (a.u.) for the first, 16400 fluorescence intensity (a.u.) for the second.

Compared with “TTTAATTGTCCAAATTTGTGAAAGTGTGCCAAAATTTGGGCGGAGTCACCTAGTGCAG”, “CACCATGATTACTCCTAATCATGAACTCCTGTTTCTTGGGCGGAGTCACCTAGTGCAG” is higher in binding signal: 31400 fluorescence intensity (a.u.) for the first, 40500 fluorescence intensity (a.u.) for the second.

Going from “GAAATACTACTCCTCCAATTGATTGATTCCCTTTCTCCTCCGGAGTCACCTAGTGCAG” to “TTCTCAATTTAGAGACTTAACAGCAGAAGAAAAGATGGAACGGAGTCACCTAGTGCAG”, the binding signal falls from 20500 fluorescence intensity (a.u.) to 13000 fluorescence intensity (a.u.).

Compared with “AACTAATTATTTAATTTGCAAGTACGGATGTTTACCTCAGCGGAGTCACCTAGTGCAG”, “GTGCAGTTTATACATTAACATGTTAATCCCACTTTACTACCGGAGTCACCTAGTGCAG” is lower in binding signal: 35700 fluorescence intensity (a.u.) for the first, 6970 fluorescence intensity (a.u.) for the second.

Compared with “CATGGCGTAATTAGACTCAAAAGATTCGTCTCGCGAATTACGGAGTCACCTAGTGCAG”, “CACACCATCAATCACACGTACGAGCAGTTTCCGCTTCTTTCGGAGTCACCTAGTGCAG” is higher in binding signal: 6800 fluorescence intensity (a.u.) for the first, 16700 fluorescence intensity (a.u.) for the second.

First: GGATGATTATATTCTTCTTGCCTAATAAGTTGTACTTTGACGGAGTCACCTAGTGCAG
Second: AGTAATAAATTGATTGTATGTTATCTGGTGGTCTGAAACTCGGAGTCACCTAGTGCAG
The binding signal of the first is lower: 35000 fluorescence intensity (a.u.) for the first, 57400 fluorescence intensity (a.u.) for the second.

Going from “TTTCTTAATTTCTTAATTGTATTTCTATAAGGACTCTATACGGAGTCACCTAGTGCAG” to “AGAAATTAATACATAGGATTTTGCAAACTCCATTTCTTTGCGGAGTCACCTAGTGCAG”, the binding signal falls from 6550 fluorescence intensity (a.u.) to 3590 fluorescence intensity (a.u.).

Compared with “AAACTAATTTCATAAATTAGAGCTAATTCGTGAGACGAATCGGAGTCACCTAGTGCAG”, “GTATATAATTTGTTGTGACATAATTGGATGATAGAAATATCGGAGTCACCTAGTGCAG” is higher in binding signal: 18900 fluorescence intensity (a.u.) for the first, 40600 fluorescence intensity (a.u.) for the second.

First: CCACAAATTAATCCCTCATGCTCTTGGCATTTACCCACCACGGAGTCACCTAGTGCAG
Second: CTTGATTCGTCATCAAATGTTCTTTAAGCATGACATAAATCGGAGTCACCTAGTGCAG
The binding signal of the first is lower: 6800 fluorescence intensity (a.u.) for the first, 6860 fluorescence intensity (a.u.) for the second.

First: GATATGTCCTCCTCCTACGTGGCTATATCCTTATTCTGGTCGGAGTCACCTAGTGCAG
Second: ATTCCCCTATTAATTTATGTAATAACATCTCCTTTAGAGCCGGAGTCACCTAGTGCAG
The binding signal of the first is lower: 7970 fluorescence intensity (a.u.) for the first, 8440 fluorescence intensity (a.u.) for the second.

First: TGTTAATTTGAAATTTGGAAGATGTAATTAACTGTTGCCACGGAGTCACCTAGTGCAG
Second: AGGGAGTGGGGATCCGCACGAGTGGAAGCGGAGCCACGCTCGGAGTCACCTAGTGCAG
The binding signal of the first is higher: 46900 fluorescence intensity (a.u.) for the first, 5130 fluorescence intensity (a.u.) for the second.
